The source holds more than one record for some entries. The other results are left out here. There may be further records. Results that share an entry are repeats across runs, samples, wells, individuals or studies. Marks such as [2022-09] give the month of the run. Counts like (3×) say how often a value occurs here.
Test system: 931267-113-T-J1-PDC KRAS spheroid with HUVEC/MSC, viability
Assay: Anticancer human tumor 931267-113-T-J1-PDC patient-derived colon adenocarcinoma cell line growth inhibition [KRAS2]
Conditions: for viability, T/C: stronger effect = lower value; for IC50: compound alone
Excerpt: Multicellular complex tumor spheroid response to RAS pathway inhibitors in combination with a targeted agents in patient-derived cell lines with oncogenic KRAS variants from multiple cancer types
A high-throughput screen of multi-cell type tumor spheroids was designed to identify active combinations of targeted small molecules and KRAS pathway inhibitors. Complex spheroids include a stromal component modeled by human endothelial cells (HUVEC) and fibroblasts modeled by human mesenchymal stem cells (MSCs). The concentration ranges selected for each drug and investigational agent were based upon clinically achievable concentrations if the clinical Cmax of the agent was known.
Compounds. The drugs and investigational agents: BI-3406 (NSC825286), BAY-293 (NSC824723), batoprotafib (TNO155; NSC825523), sotorasib (AMG 510; NSC818433), MRTX1257 (NSC819558), elimusertib (BAY 1895344; NSC800525), molibresib (GSK525762; NSC774829), temuterkib (LY3214996; NSC803410), venetoclax (NSC766270), alisertib (NSC759677), olaparib (NSC753686), talazoparib (NSC767125), erdafitinib (NSC781556), ipatasertib (NSC767898), cabozantinib (NSC761068), nintedanib (NSC756659), abemaciclib (NSC768073), docetaxel (NSC628503), trametinib (NSC758246), and sapanisertib (NSC764658) were obtained from the National Cancer Institute (NCI) Developmental Therapeutics Program Chemical Repository. The FDA-approved anticancer drug set is available from the Developmental Therapeutics Program. […] The stock solutions were prepared in dimethyl sulfoxide (DMSO, Sigma-Aldrich, St. Louis, MO, cat. D2650) at 800-fold the tested concentration and stored at -70 degrees C prior to their use. All drugs and investigational agents were tested over a range starting from a high concentration at or near the clinical Cmax and decreasing in half-log increments. If the clinical Cmax for an agent had not been determined, the highest concentration tested was 10 microM.
Cell Culture. All cells were maintained in an incubator at 37 degrees C and 5% CO2 with 95% humidity. The PDC lines were cultured according to standard operating procedures established by the NCI PDMR (https://pdmr.cancer.gov/sops/default.htm). Briefly, all PDCs were thawed and cultured in Matrigel-coated flasks prepared with a working solution of 1X Ham's F-12 nutrient mix, without supplementation (Invitrogen, Waltham, MA, cat. 11765054), 100 U/mL penicillin-streptomycin (Invitrogen, cat. 15140122), and 2.5% Matrigel (Corning Inc., Corning, NY, cat. 354248) for the first three passages. All PDCs were cultured in complete DMEM/F-12 media containing advanced DMEM/F-12 (Invitrogen, cat. 12634028), 4.9% defined fetal bovine serum, heat inactivated (HyClone Laboratories Inc., Logan, UT, cat. SH30070.03HI), 389 ng/mL hydrocortisone (Sigma-Aldrich, cat. H4001), 9.7 ng/mL human EGF recombinant protein (Invitrogen, cat. PHG0313), 23.4 microg/mL adenine (Sigma-Aldrich, cat. A2786), 97.3 U/mL penicillin-streptomycin (Invitrogen, cat. 15140122), 1.9 mM L-glutamine (Invitrogen, cat. 25030081), and 9.7 microM Y-27632 dihydrochloride (Tocris Bioscience, Bristol, United Kingdom, cat. 1254). The PDCs were cultured in complete DMEM/F12 media without 9.7 microM Y-27632 dihydrochloride for at least two passages prior to the screen. The established cell line HOP-62 was cultured in RPMI 1640 medium, HEPES (Invitrogen, cat. 22400105) with 10% defined fetal bovine serum (HyClone Laboratories Inc., cat. SH30070.03) and 2 mM L-glutamine (Invitrogen, cat. 25030081). The pooled donor HUVEC were cultured in endothelial cell growth medium 2 (PromoCell, Heidelberg, Germany, cat. C-22011) and the hMSC were cultured in mesenchymal stem cell growth medium 2 (PromoCell, cat. C-28009). For all experiments, HUVEC and hMSC were used at passages </=5, while the malignant cell lines were used at passages </=15. […]
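Further: compound exposure lasted 7 days before the readout.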
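Wherever viability, T/C is given: 100% = DMSO vehicle control viability.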

SMILES | viability, T/C (compound alone 0.1 µM) | viability, T/C (compound alone 0.316 µM) | viability, T/C (compound alone 1 µM) | viability, T/C (compound alone 3.16 µM) | viability, T/C (compound alone 10 µM) | IC50 (run of 08/19/2021) | IC50 | viability, T/C (compound alone 0.01 µM) | viability, T/C (compound alone 0.0316 µM)
COc1cc2nc(C)nc(NC(C)c3cc(N)cc(C(F)(F)F)c3)c2cc1OC1CCOC1 (stereo not given) | 69.1, 107, 96.4, 90.7, 87.4, 83.7, 69.5, 98.5, 93.5, 91.8, 90.8% [2021-08] and 81.8, 82.7, 77.9, 81.4, 64.4, 85.8% [2021-09] | 79.5, 100, 73.5, 82.7, 77.8, 91, 77.6, 88.9, 89.4, 95.7, 82.8% [2021-08] and 100, 83, 87.8, 85, 93.3, 88.1% [2021-09] | 90.5, 61.8, 94.5, 72.8, 87.3, 78.9, 75.7, 111, 83.1, 89.3, 76.6% [2021-08] and 84.3, 87.9, 80, 77.6, 89.3, 87.7% [2021-09] | 98.8, 81.7, 88.2, 96.4, 87.5, 87.4, 62.2, 85.6, 77.7, 75.8, 77.9% [2021-08] and 80.6, 69, 66.8, 67.6, 88, 63.8% [2021-09] | 82.4, 66.8, 90.6, 16.5, 33, 2.47, 0.92, 1.48, 1.24, 0.6, 0.76% [2021-08] and 2.59, 2.56, 1.87, 4.24, 4.66% [2021-09] | > 10 µM, 5.73 µM, 6.87 µM, 5.16 µM |  |  | 
CC(C)n1nc(-c2ccc3oc(N)nc3c2)c2c(N)ncnc21 |  |  |  |  |  |  | 7.13, 4.39, 5.51, 14.3, 6.66 nM | 43.1, 36.4, 39, 62.3, 42.1% | 
CNCc1ccccc1-c1csc(C(C)Nc2nc(C)nc3cc(OC)c(OC)cc23)c1 (stereo not given) | 99.5, 102 (2×), 84.2, 79.2, 91.6, 74.8, 101, 91.3, 74, 85.6% [2021-08] and 87.2, 99.8, 97.7, 65.7, 92.4, 95% [2021-09] | 105, 92.3, 86.2, 84.2, 106, 102, 67.6, 84, 86.8, 74.1, 85.8% [2021-08] and 74.8, 70.5, 74.4, 83.7, 80, 77.4% [2021-09] | 88.9, 90.7, 90.5, 87.6, 6.78, 41, 55.2, 67.8, 55.8, 53.6, 68.4% [2021-08] and 48.6, 63.7, 64, 58.9, 49.9, 42.8% [2021-09] | 114, 0.4, 0.46, 0.51, 0.3, 0.37, 0.1, 0.14, 0.07, 0.25% [2021-08] and 0.11, 0.09, 0.08, 0.1% [2021-09] |  | 582 nM and 5.69 µM, 1.68 µM, 1.63 µM, 1.59 µM, 844 nM [2021-08] |  |  | 
C=CC(=O)N1CCN(c2nc(=O)n(-c3c(C)ccnc3C(C)C)c3nc(-c4c(O)cccc4F)c(F)cc23)C(C)C1 (stereo not given) |  | 114, 113, 98.2, 86.2, 102, 97.5, 80, 87.4, 79.7, 88.1, 92.5% [2021-08] and 84.3, 93.7, 109, 73.8, 97.8, 93.4% [2021-09] | 104, 109, 118, 123, 100, 126, 80, 96.8, 85, 101, 85.6% [2021-08] and 80.5, 96.5, 88, 84.8, 82.6, 105% [2021-09] | 93.1, 113, 96.4, 122, 104, 116, 71.1, 114, 108, 94.8, 84.8% [2021-08] and 88.6, 89.5, 106, 79.4, 86.8, 88.7% [2021-09] | 70.2, 129, 131, 107, 100, 99.2, 85.4, 92.3, 96.9, 98.3, 78.6% [2021-08] and 87.8, 102, 95.6, 104, 96.8, 84.3% [2021-09] |  |  |  | 
C=CC(=O)N1CCN(c2nc(OCC3CCCN3C)nc3c2CCN(c2cccc4cccc(C)c24)C3)CC1CC#N (stereo not given) | 82.3, 85.9, 93.9, 82.7, 87.7, 72, 89.6, 88.1, 96, 93.7, 82.9% [2021-08] and 81.8, 90.5, 90.8, 100, 92.6, 104% [2021-09] | 102, 66.2, 81, 84.7, 85, 84.3, 69.2, 84.4, 90.9, 78.5, 86.8% [2021-08] and 88.5, 73.4, 78.4, 101, 92, 85.2% [2021-09] | 91.1, 73.1 (2×), 94.6, 67.9, 61.7, 64.7, 89.4, 94.3, 82.7, 94% [2021-08] and 85.6, 77.1, 97.1, 97.7, 71.4, 88.5% [2021-09] | 90.5, 0.21, 0.25, 0.27, 0.15, 5.73, 11.6, 0.42, 5.72, 1.27% [2021-08] and 0.33, 7.82, 0.28, 0.99, 0.88, 0.26% [2021-09] |  | 1.3 µM and > 3.16 µM, 1.35 µM, 1.68 µM, 1.36 µM, 1.23 µM [2021-08] |  |  | 85.6 (2×), 93.6, 92.9, 84.5, 99.2, 87.9, 89, 115, 91.1, 93.8% [2021-08] and 96.3, 82.7, 88, 88.5, 82.3, 88.9% [2021-09]
CCNC(=O)CC1N=C(c2ccc(Cl)cc2)c2cc(OC)ccc2-n2c(C)nnc21 (stereo not given) |  |  |  |  |  |  | 2.68 µM, 1.97 µM, > 10 µM, 1.79 µM, 2.53 µM |  | 
Cn1nccc1Nc1nccc(-c2cc3c(s2)C(C)(C)N(CCN2CCOCC2)C3=O)n1 | 105, 99.5, 74.3, 90.5, 97.8% |  |  |  |  |  |  |  | 

From PubChem BioAssay AID1963863 (Molecular Pharmacology Branch, DTP, NCI, 2024)
